# Assay results as given in article PMC4336329 (PLoS ONE, 2015).
# The whole screen tested about 310,000 compounds, of which about 2,200 (0.71%) showed an effect of 50% or more. Effects have a minus sign here. The list shows a part of the results.
# Molecular target: human ether-à-go-go-related gene (hERG) potassium channel (human, UniProt Q12809)
# Assay: primary screen, population patch clamp on CHO cells stably expressing hERG
# human ether-à-go-go-related gene (hERG) potassium channel, sequence (Q12809 whole entry, looked up): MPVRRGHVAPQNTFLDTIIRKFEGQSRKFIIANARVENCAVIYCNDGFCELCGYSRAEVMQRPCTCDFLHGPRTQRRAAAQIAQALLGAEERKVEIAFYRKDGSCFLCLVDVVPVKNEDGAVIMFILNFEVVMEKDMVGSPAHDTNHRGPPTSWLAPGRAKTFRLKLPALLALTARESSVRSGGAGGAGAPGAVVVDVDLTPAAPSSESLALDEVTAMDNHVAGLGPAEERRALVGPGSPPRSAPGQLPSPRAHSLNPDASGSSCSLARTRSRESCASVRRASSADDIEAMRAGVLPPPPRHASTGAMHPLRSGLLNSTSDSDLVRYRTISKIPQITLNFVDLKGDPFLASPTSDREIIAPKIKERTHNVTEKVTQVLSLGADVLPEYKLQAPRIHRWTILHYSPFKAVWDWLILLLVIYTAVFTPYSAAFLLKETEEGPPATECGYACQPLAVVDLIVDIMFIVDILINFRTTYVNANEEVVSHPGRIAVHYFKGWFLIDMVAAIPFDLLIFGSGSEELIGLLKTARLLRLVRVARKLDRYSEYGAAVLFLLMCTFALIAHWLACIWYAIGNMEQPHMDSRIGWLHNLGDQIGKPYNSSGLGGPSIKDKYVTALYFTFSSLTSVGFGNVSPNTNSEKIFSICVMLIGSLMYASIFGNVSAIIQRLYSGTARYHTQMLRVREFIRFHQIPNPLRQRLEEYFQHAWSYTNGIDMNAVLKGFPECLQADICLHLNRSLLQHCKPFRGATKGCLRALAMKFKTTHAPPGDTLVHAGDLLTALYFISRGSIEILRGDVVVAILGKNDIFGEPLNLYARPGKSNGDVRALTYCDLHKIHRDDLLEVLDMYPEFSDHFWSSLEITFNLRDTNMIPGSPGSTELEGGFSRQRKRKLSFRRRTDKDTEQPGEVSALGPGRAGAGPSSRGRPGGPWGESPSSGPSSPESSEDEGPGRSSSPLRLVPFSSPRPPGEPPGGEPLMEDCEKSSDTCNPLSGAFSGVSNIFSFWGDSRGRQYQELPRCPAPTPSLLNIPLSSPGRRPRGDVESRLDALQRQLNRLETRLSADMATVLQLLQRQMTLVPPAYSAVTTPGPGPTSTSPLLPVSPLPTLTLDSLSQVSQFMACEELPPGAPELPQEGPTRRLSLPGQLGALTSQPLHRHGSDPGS
row,SMILES,"hERG current change (%, negative = inhibition) at 1uM [%]"
1,O=C(Nc1ccc(Cl)cc1)Nc1ccccc1NS(=O)(=O)c1cccs1,12.4
2,Cc1nn(-c2ccc(F)cc2)c(Cl)c1/C=C(\CC(=O)O)c1nc2ccccc2s1,-0.919
3,CCCCOc1ccc(C(=O)CCN2CCCCC2)cc1.Cl,-24.1
4,O=C(Nc1ccc(S(=O)(=O)N2CCCCC2)cc1)c1ccc(CN2CCOCC2)cc1,-8.92
5,Cc1ccc(CCNC(=O)NC(C)(C)C)cc1,6.2
6,CCOc1ccccc1C(C(=O)NC1CCCC1)N(Cc1ccco1)C(=O)CNC(=O)c1ccco1 (stereo not drawn),5.42
7,COc1ccc(CNCCCO)cc1OC,11.5
8,CCCC1=Nc2cc(C(=O)NCCN3CCCC3)ccc2Sc2ccccc21,3.75
9,N#CC1CN(C(c2ccccc2)c2ccccc2)C1,7.35
10,COC(=O)C/C(N)=C(\C#N)C(=O)OC,13.3
11,COc1ccc(NC(=O)CCNS(=O)(=O)c2cccc3nsnc23)c(OC)c1,11
12,Cc1cc2cc3c(=O)[nH]c(=O)[nH]c3nc2cc1C,12.1
13,O=c1c(Cc2ccc(F)cc2)c(O)ccn1Cc1ccco1,9.56
14,C#CCN(N(C)c1ncc(C(F)(F)F)cc1Cl)S(=O)(=O)c1ccc2ccccc2c1,14.3
15,O=[N+]([O-])c1ccc(Oc2cc(NC3CCCCCCC3)c([N+](=O)[O-])cc2[N+](=O)[O-])cc1,-8.21
16,FC(F)(F)c1cc(Cl)c2nnc(C(F)(F)Cl)n2c1,7.19
17,Fc1ccc(Nc2nc(-c3ccncc3)nc3ccccc23)cc1,6.38
18,CC(=O)c1c(N2CCN(C)CC2)nc(=S)n(-c2cc(C)ccc2C)c1C,13.3
19,O=C(COC(=O)CCCc1nc2ccccc2s1)NC(=O)NCc1ccco1,13.7

row,SMILES,"hERG current change (%, negative = inhibition) at 1uM [%]"
1,CCOc1ccc2nc(NC(=O)c3ccco3)sc2c1,14.5
2,O=C(NCc1ccco1)c1ccc2ccccc2c1,3.04
3,COc1ccc(/C(N)=N/OC(=O)CCc2ccccc2)cc1OC,-3.29
4,O=C(CN1C(=O)/C(=C\c2ccco2)SC1=S)Nc1ccc(O)cc1C(=O)O,6.18
5,O=[N+]([O-])C(=C1Nc2ccccc2N1)C(Cl)=C(Cl)Cl,14.6
6,O=C(Nc1cccnc1)c1cc(-c2cccc(Br)c2)nc2ccccc12,-0.648
7,Cc1cccc(OCc2nnc(SCC(=O)c3cccs3)n2C)c1C,-1.86
8,Cc1[nH]c(=O)[nH]c(=O)c1NS(=O)(=O)c1ccccc1,25
9,Cc1[nH]c2ccccc2c1C(=O)COC(=O)c1c(-c2ccccc2)noc1C,2.68
10,CN1CCN(c2nc(Nc3ccc(F)cc3)nc(Nc3ccc(F)cc3)n2)CC1,-0.878
11,CN(Cc1ccccc1)c1ccc(C(CC(N)=O)NC(=O)c2ccccc2)cc1[N+](=O)[O-] (stereo not drawn),10.5
12,CC(CCCN(C)C)C(Cc1ccccc1)c1ccccc1.Cl (stereo not drawn),9.89
13,CCOc1ccc(CCNC(=O)C2CCN(S(=O)(=O)N3CCOCC3)CC2)cc1OCC,10.4
14,COc1ccc(NC(=O)COc2coc(CN3CCN(c4ccccc4)CC3)cc2=O)cc1,11.3
15,O=C(NCc1ccco1)c1ccccc1SCC(=O)N1CCCC1,6.45
16,COCC(C)n1c(SCC(=O)N(C)C2CCS(=O)(=O)C2)nc2ccccc2c1=O (stereo not drawn),4.54
17,Cc1c(N2C(=O)CSC2c2ccccc2)c(=O)n(-c2ccccc2)n1C (stereo not drawn),13.2
18,Cc1ccc(NC(=O)/C(=C\c2ccccc2)NC(=O)c2ccco2)cc1,9.83
19,O=C(O)c1ccc2c(=O)n3c(nc2c1)/C(=C/c1ccc(C(F)(F)F)cc1)CC3,9.18

row,SMILES,"hERG current change (%, negative = inhibition) at 1uM [%]"
1,Cc1ccsc1C(=O)N1CCN(S(=O)(=O)c2cccc(F)c2)CC1,5
2,CCn1c2ccccc2c2cc(NC(=O)Cc3ccc(S(=O)(=O)N4CCOCC4)s3)ccc21,8.14
3,COc1ccc(N2C(=O)CC(C#N)=C2N)cc1,13.5
4,COCCNC(=O)COC(=O)/C=C/c1c(C)nn(Cc2ccc(Cl)cc2Cl)c1Cl,-5.52
5,CCOC(=O)C1CCN(S(=O)(=O)c2ccc(-c3ccccn3)s2)CC1,1.29
6,CC(C)(C)c1[nH]ncc1[N+](=O)[O-],5.4
7,O=C(NCCN1CCCC1)c1ccc2c(c1)N(Cc1cccc(Cl)c1)C(=O)c1ccccc1S2(=O)=O,13.5
8,CCNC(=S)NNC(=S)NCc1ccccc1,11
9,COCCn1nnnc1C(c1cccs1)N1CCN(c2nc3ccccc3s2)CC1 (stereo not drawn),0.667
10,Cc1cccc(N(CC(=O)Nc2ccccc2F)S(C)(=O)=O)c1,21.7
11,Cc1nc(N)sc1-c1csc(Nc2ccc(Cl)cn2)n1,3.31
12,Fc1ccccc1/C=N/n1cnnc1,13.7
13,Cn1c(COc2ccc(Cl)cc2)nnc1SCC(=O)NC1CCCCC1,1.21
14,CC(=O)Nc1ccc(OCC(=O)NC(C)C(C)C)cc1 (stereo not drawn),13.7
15,COc1ccc(CC(=O)Nc2nc(C(C)(C)C)cs2)cc1,5.06
16,CCCCOc1ccccc1C1C(C(=O)OC)=C(C)N(C)C(C)=C1C(=O)OC,0.0753
17,CCN1CCN(C(=S)NCc2ccc(C)cc2)CC1,8.05
18,COc1ccc(N(CC(=O)N2CCOCC2)S(C)(=O)=O)c(OC)c1,13
19,COc1cc(N(C(=O)Cc2cccs2)C(C(=O)NC2CCCCC2)c2ccc(C)cc2)ccc1-n1cnnn1 (stereo not drawn),19.9
